From the supplement of paper PMC8728848
This is one part of the list.

Legend:
Experiment in all cases: glycan array binding signal (z-score within array); higher = stronger binding
Details in all cases: glycan notation: IUPAC condensed, linker removed
Fuc(a1-2)Gal = molecular target: Fuc(a1-2)Gal
Outline: (§1)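 Glycan array binding is given as a within-array Z-score, which can be read as non-binding when negative. The arrays, 3228 of them, came from the Consortium for Functional Glycomics database and were retained only where the protein sequence was available. Z-scores were averaged across arrays of the same protein sequence at different concentrations or buffers and across linkers.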

Fuc(a1-2)Gal(b1-3)GalNAc = molecular target: Fuc(a1-2)Gal(b1-3)GalNAc
Outline: as §1

[1] = molecular target: Fuc(a1-2)Gal(b1-3)GalNAc(b1-3)Gal
Outline: as §1

[2] = molecular target: Fuc(a1-2)Gal(b1-3)GalNAc(b1-3)Gal(a1-4)Gal(b1-4)Glc
Outline: as §1

[3] = molecular target: Fuc(a1-2)Gal(b1-3)GalNAc(b1-3)Gal(b1-4)Glc
Outline: as §1

[4] = molecular target: Fuc(a1-2)Gal(b1-3)GalNAc(b1-4)[Neu5Ac(a2-3)]Gal(b1-4)Glc
Outline: as §1

[5] = molecular target: Fuc(a1-2)Gal(b1-3)[Fuc(a1-4)]GlcNAc
Outline: as §1

Fuc(a1-2)Gal(b1-4)Glc = molecular target: Fuc(a1-2)Gal(b1-4)Glc
Outline: as §1

Fuc(a1-2)Gal(b1-4)GlcNAc = molecular target: Fuc(a1-2)Gal(b1-4)GlcNAc
Outline: as §1

[6] = molecular target: Fuc(a1-2)Gal(b1-4)GlcNAc(b1-3)Gal(b1-4)GlcNAc
Outline: as §1

[7] = molecular target: Fuc(a1-2)Gal(b1-4)GlcNAc(b1-3)Gal(b1-4)GlcNAc(b1-3)Gal(b1-4)GlcNAc
Outline: as §1

[8] = molecular target: Fuc(a1-2)Gal(b1-4)[Fuc(a1-3)]GalNAc(b1-3)Gal(b1-4)[Fuc(a1-3)]GlcNAc
Outline: as §1

[9] = molecular target: Fuc(a1-2)Gal(b1-4)[Fuc(a1-3)]GalNAc(b1-3)Gal(b1-4)[Fuc(a1-3)]GlcNAc(b1-3)Gal(b1-4)[Fuc(a1-3)]GalNAc
Outline: as §1

[10] = molecular target: Fuc(a1-2)Gal(b1-4)[Fuc(a1-3)]GlcNAc
Outline: as §1

Fuc(a1-2)GlcNAc = molecular target: Fuc(a1-2)GlcNAc
Outline: as §1

Fuc(a1-2)[Gal(a1-3)]Gal = molecular target: Fuc(a1-2)[Gal(a1-3)]Gal
Outline: as §1

[11] = molecular target: Fuc(a1-2)[Gal(a1-3)]Gal(b1-3)GlcNAc
Outline: as §1

[12] = molecular target: Fuc(a1-2)[Gal(a1-3)]Gal(b1-4)Glc
Outline: as §1

[13] = molecular target: Fuc(a1-2)[Gal(a1-3)]Gal(b1-4)GlcNAc
Outline: as §1

[14] = molecular target: Fuc(a1-2)[Gal(a1-3)]Gal(b1-4)[Fuc(a1-3)]GlcNAc
Outline: as §1

[15] = molecular target: Fuc(a1-2)[Gal(a1-4)]Gal(b1-4)GalNAc
Outline: as §1

[16] = molecular target: Fuc(a1-2)[GalNAc(a1-3)]Gal
Outline: as §1

[17] = molecular target: Fuc(a1-2)[GalNAc(a1-3)]Gal(b1-3)GlcNAc
Outline: as §1

[18] = molecular target: Fuc(a1-2)[GalNAc(a1-3)]Gal(b1-4)Glc
Outline: as §1

[19] = molecular target: Fuc(a1-2)[GalNAc(a1-3)]Gal(b1-4)GlcNAc
Outline: as §1

[20] = molecular target: Fuc(a1-2)[GalNAc(a1-3)]Gal(b1-4)[Fuc(a1-3)]GlcNAc
Outline: as §1

[21] = molecular target: Fuc(a1-2)[GalNAc(a1-4)]Gal(b1-4)GlcNAc
Outline: as §1

Fuc(a1-3)GlcNAc = molecular target: Fuc(a1-3)GlcNAc
Outline: as §1

[22] = molecular target: Fuc(a1-3)[Gal(b1-4)]GlcNAc
Outline: as §1

[23] = molecular target: Fuc(a1-3)[Gal(b1-4)]GlcNAc(b1-4)Gal(b1-4)[Fuc(a1-3)]GlcNAc
Outline: as §1

B1: Crocus Lectin (Crocus vernus), Q9FVA1 (protein)
chain: MAKSLVLSSLLLALLLAAPLASLADNNVLLTGDVLHTDNQLSFESAAFVMQGDCNLVLYNEAGGFQSNTHGRGVGCTLRLNNFGQLEIHSANSNTPVWVSLRNGIPVRGDYAAVLGPDQHVTIYGPAIWSTPAPNRHERGATVSNIPRVRNVLFSSQVMSDNAQLATRDYSLVMRDDCNLALTKGSKTNIVWESGTSGRGQHCFMRLGHTGLIEISDDRLNTVWRSNTVGQEGDYVLILQINGQAVVYGPAVWSTASPARGGASAAL
- glycan array binding signal (z-score) (Fuc(a1-2)Gal): -0.176
- glycan array binding signal (z-score) (Fuc(a1-2)Gal(b1-3)GalNAc): -0.163
- glycan array binding signal (z-score) [1]: -0.174
- glycan array binding signal (z-score) [2]: -0.162
- glycan array binding signal (z-score) [3]: -0.185
- glycan array binding signal (z-score) [4]: -0.131
- glycan array binding signal (z-score) [5]: -0.19
- glycan array binding signal (z-score) (Fuc(a1-2)Gal(b1-4)Glc): -0.184
- glycan array binding signal (z-score) (Fuc(a1-2)Gal(b1-4)GlcNAc): -0.173
- glycan array binding signal (z-score) [6]: -0.161
- glycan array binding signal (z-score) [7]: -0.146
- glycan array binding signal (z-score) [8]: -0.182
- glycan array binding signal (z-score) [9]: -0.172
- glycan array binding signal (z-score) [10]: -0.181
- glycan array binding signal (z-score) (Fuc(a1-2)GlcNAc): -0.156
- glycan array binding signal (z-score) (Fuc(a1-2)[Gal(a1-3)]Gal): -0.181
- glycan array binding signal (z-score) [11]: -0.175
- glycan array binding signal (z-score) [12]: -0.168
- glycan array binding signal (z-score) [13]: -0.175
- glycan array binding signal (z-score) [14]: -0.178
- glycan array binding signal (z-score) [15]: -0.185
- glycan array binding signal (z-score) [16]: -0.115
- glycan array binding signal (z-score) [17]: -0.144
- glycan array binding signal (z-score) [18]: -0.181
- glycan array binding signal (z-score) [19]: -0.177
- glycan array binding signal (z-score) [20]: -0.159
- glycan array binding signal (z-score) [21]: -0.183
- glycan array binding signal (z-score) (Fuc(a1-3)GlcNAc): -0.17
- glycan array binding signal (z-score) [22]: -0.17
- glycan array binding signal (z-score) [23]: -0.177
